{
  "source": "paper PMC9633696",
  "target": "LRP1 on primary human macrophages (human (endogenous in primary human macrophages)) (UniProt Q07954)",
  "sequence (Q07954 20-4544)": "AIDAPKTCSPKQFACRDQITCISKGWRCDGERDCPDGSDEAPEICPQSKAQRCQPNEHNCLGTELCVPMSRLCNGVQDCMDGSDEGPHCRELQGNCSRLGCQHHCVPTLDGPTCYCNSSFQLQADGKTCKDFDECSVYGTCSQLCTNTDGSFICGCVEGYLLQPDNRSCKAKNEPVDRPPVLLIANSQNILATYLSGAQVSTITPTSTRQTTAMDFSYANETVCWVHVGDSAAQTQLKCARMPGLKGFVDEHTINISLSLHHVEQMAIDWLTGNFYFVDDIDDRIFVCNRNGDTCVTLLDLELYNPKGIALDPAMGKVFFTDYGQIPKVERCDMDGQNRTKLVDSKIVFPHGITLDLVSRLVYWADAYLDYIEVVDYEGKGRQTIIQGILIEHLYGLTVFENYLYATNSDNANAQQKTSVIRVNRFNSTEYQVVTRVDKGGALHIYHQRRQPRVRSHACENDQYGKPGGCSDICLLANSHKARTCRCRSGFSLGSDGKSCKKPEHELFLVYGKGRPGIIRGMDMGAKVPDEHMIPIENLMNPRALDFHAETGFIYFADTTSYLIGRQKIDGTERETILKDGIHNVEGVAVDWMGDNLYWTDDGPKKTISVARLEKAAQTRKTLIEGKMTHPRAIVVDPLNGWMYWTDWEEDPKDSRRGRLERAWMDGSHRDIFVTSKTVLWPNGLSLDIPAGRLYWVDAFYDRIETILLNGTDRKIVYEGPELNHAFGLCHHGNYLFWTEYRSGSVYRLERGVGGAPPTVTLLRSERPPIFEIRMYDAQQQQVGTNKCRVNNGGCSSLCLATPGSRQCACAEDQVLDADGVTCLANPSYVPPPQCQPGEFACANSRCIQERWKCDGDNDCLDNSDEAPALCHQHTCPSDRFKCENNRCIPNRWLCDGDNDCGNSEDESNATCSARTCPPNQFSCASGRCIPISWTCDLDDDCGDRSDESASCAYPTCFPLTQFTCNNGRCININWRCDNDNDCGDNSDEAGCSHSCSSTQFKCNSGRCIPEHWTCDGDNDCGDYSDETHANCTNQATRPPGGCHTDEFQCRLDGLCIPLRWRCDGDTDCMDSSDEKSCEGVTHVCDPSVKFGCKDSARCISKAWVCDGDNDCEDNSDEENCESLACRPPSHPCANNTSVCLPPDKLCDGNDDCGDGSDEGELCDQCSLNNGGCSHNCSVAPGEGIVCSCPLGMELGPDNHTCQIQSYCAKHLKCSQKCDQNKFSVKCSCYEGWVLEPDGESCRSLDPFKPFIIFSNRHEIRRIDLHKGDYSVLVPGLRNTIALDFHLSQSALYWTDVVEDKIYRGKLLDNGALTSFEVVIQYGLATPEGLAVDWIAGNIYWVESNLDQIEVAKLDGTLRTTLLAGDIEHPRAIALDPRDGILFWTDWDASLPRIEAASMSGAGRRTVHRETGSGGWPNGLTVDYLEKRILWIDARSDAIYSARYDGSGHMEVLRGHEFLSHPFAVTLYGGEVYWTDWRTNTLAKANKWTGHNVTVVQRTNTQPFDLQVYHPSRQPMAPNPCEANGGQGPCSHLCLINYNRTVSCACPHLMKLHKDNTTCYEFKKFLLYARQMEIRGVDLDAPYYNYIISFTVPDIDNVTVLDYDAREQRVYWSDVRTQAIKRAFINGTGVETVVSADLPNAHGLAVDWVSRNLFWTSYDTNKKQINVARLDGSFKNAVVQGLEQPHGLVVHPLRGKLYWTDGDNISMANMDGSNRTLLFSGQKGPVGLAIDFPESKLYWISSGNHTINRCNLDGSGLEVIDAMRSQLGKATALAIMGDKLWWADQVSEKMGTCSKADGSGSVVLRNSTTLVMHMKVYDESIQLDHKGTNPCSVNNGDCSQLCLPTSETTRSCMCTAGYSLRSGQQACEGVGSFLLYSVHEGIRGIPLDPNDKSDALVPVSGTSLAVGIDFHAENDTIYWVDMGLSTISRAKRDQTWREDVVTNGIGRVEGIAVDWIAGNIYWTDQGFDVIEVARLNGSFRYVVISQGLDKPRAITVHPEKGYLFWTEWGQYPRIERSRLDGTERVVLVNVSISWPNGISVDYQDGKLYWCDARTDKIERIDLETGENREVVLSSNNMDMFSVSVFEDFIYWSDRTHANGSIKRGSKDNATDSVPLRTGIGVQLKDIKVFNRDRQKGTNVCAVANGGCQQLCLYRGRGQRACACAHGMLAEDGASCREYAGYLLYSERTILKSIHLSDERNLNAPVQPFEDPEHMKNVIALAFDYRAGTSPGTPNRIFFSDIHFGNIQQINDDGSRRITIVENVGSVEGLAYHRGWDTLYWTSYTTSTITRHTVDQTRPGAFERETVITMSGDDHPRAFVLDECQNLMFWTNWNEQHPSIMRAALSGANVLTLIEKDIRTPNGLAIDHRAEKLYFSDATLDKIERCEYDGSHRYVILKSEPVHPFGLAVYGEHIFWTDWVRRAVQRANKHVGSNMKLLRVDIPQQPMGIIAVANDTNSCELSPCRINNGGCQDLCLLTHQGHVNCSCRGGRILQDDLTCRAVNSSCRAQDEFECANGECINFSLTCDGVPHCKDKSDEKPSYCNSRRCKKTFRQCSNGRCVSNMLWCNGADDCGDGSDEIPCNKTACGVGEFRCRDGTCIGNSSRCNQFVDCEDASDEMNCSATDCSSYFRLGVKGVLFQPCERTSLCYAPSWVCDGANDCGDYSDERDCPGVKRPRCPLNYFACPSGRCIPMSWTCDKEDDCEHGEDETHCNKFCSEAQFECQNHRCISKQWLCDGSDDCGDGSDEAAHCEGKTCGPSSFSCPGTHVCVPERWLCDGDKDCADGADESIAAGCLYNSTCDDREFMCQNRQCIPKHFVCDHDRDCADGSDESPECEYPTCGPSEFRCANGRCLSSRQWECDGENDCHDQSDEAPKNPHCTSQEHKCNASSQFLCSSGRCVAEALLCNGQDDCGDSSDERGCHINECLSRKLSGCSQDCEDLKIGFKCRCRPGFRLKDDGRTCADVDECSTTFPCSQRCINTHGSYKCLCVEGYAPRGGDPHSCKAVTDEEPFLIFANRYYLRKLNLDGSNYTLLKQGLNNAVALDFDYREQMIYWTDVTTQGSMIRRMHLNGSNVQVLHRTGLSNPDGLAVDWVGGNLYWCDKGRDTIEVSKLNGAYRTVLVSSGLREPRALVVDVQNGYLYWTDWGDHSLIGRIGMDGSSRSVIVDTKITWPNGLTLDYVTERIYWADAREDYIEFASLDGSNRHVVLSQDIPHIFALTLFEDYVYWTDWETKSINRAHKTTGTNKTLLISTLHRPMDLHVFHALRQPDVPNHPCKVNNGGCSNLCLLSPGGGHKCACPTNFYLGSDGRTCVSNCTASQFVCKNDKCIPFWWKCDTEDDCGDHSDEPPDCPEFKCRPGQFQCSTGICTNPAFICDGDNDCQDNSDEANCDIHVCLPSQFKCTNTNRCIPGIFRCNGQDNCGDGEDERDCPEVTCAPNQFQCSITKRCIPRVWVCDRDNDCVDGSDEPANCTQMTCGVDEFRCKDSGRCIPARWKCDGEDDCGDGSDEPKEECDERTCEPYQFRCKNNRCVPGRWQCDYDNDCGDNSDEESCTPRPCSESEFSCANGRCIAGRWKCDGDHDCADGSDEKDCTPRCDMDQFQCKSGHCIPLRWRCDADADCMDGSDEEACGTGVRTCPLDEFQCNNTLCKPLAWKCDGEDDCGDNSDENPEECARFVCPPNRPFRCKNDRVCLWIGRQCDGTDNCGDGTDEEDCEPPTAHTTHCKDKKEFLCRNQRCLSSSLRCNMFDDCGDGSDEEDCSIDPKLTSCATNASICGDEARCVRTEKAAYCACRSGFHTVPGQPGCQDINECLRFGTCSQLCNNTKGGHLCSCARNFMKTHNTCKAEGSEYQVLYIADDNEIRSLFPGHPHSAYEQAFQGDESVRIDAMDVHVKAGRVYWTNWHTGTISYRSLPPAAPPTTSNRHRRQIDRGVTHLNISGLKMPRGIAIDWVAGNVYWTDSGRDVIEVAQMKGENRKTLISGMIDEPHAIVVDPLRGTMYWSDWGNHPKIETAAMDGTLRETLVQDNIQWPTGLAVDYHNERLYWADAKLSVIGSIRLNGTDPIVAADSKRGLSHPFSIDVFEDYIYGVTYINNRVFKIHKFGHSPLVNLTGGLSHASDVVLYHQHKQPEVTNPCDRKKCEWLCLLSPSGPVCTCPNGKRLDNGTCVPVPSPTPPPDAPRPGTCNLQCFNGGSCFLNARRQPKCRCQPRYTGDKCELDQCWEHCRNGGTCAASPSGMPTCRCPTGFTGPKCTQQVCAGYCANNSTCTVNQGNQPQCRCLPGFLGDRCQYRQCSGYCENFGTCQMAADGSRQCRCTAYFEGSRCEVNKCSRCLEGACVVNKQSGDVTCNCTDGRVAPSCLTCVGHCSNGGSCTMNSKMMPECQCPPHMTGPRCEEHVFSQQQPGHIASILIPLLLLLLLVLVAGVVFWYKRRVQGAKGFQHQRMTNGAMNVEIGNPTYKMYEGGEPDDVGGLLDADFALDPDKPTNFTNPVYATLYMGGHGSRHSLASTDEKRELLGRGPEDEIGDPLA",
  "data": [
    {"substance": "Human plasma-derived von Willebrand factor-Factor VIII free (a stretch of the chain, sequence left out) (natural protein)", "values": [
      {"measurement": "decrease in p38 phosphorylation (Western blot, densitometry) in primary human macrophages treated with pd-VWF (10 μg/ml), in the presence of RAP (200 nM)", "value": 50, "unit": "%"},
      {"measurement": "decrease in p38 signaling (Western blot, densitometry) in primary human macrophages treated with VWF, in the presence of a monoclonal anti-LRP1 antibody", "value": 50, "unit": "%"}
    ]}
  ]
}
